According to patent US11285169B2, “Methods for modulating chemotherapeutic cytotoxicity” (The United States of America, as represented by the …, priority 2013, dated 2022):
Counter-ions that a name gives are not always drawn. Like-named read-outs stand apart in the source and are kept apart here. Starred links: 1 amine or outer side, 2 acyl side, 3 side chain; linkers in the order of their positions; H or OH if unused. Positions of bridges follow the written chain, without caps; N, C: chain ends. Non-standard residues stand in square brackets, D forms with d. Residues, ends and D or L forms follow the SMILES beside them. Chains are numbered I, II in the order given. Actinocin(9to1) = Cc1c2oc3c(C)ccc(C(=O)[*:1])c3nc-2c(C(=O)[*:2])c(N)c1=O; NMeV = CN[C@H](C(=O)O)C(C)C; Sar = CNCC(=O)O

How the values were obtained:
WT Jurkat cells = settings: for AC50: read-out: AC50 (μM) WT
[1] = tested on: CD47 deficient (CD47 KO) Jurkat T cells; settings: for AC50: read-out: AC50 (μM) CD47 KO, cell viability
[2] = WT Jurkat cells, 48 hours, 10^-9 to 10^-4 M, CellTiter-Glo
[3] = CD47 KO Jurkat T cells, 48 hours, 10^-9 to 10^-4 M, CellTiter-Glo
[4] = WT Jurkat cells, cell viability, 48 hours
[5] = difference CD47 KO minus WT Jurkat cells, 48 hours
[6] = log AC50 difference CD47 KO minus WT
[7] = CD47 KO Jurkat T cells, 48 hours

Compound | Maximal Response WT (RLU) (WT Jurkat cells; [2]) | Maximal Response CD47 KO (RLU) [1, 3] [RLU] | also measured
CC1(C)CC[C@]2(C(=O)O)CC[C@]3(C)C(=CC[C@@H]4[C@@]5(C)CC[C@H](O)C(C)(C)[C@@H]5CC[C@]43C)[C@@H]2C1 [Oleanolic acid] | 26.521 | 56.286 | –
C[C@H]1c2cccc(O)c2C(=O)C2=C(O)[C@]3(O)C(=O)C(C(N)=O)=C(O)[C@@H](N(C)C)[C@@H]3[C@@H](O)[C@@H]21 [Doxycycline] | 19.309 | 47.095 | –
COc1ccc(C(=O)CC2(O)C(=O)Nc3c(Cl)ccc(Cl)c32)cc1 (centres unmarked) [YK-4-279] | 14.615 | 38.318 | AC50 (WT Jurkat cells; [4]): 0.166 µM; Δ Maximal Response CD47KO-WT [1, 5]: 23.703; Δ LogAC50 CD47KO-WT [1, 6]: 0.75; AC50 [1, 7]: 0.935 µM
CN(C)CC(C)(C)CNc1nn2c(-c3ccccc3)nnc2cc1C1CCC1 [Akt-l-1] | 10.094 | 72.553 | AC50 (WT Jurkat cells; [4]): 2.35 µM; Δ Maximal Response CD47KO-WT [1, 5]: 62.459; Δ LogAC50 CD47KO-WT [1, 6]: 0.85; AC50 [1, 7]: 16.6 µM
CNC(=O)CN1CCC(Oc2cc3c(Nc4cccc(Cl)c4F)ncnc3cc2OC)CC1 [Sapitinib] | 14.043 | 42.354 | –
Cc1csc(-c2nnc(Nc3ccc(Oc4ncccc4-c4ccnc(N)n4)cc3)c3ccccc23)c1 [AMG-900] | 26.057 | 52.081 | –
CC1(C)O[C@H]2CC(=O)OC[C@]23[C@H]2CC[C@@]4(C)[C@H](c5ccoc5)OC(=O)[C@H]5O[C@]54[C@]2(C)C(=O)C[C@@H]13 [Limonin] | 106.306 | 137.297 | –
CC(C)[C@]12O[C@H]1[C@@H]1O[C@]13[C@]1(O[C@H]1C[C@H]1C4=C(CC[C@@]13C)C(=O)OC4)[C@@H]2O [Triptolide] | 5.613 | 65.405 | –
CC[C@]1(O)C[C@H]2CN(CCc3c([nH]c4ccccc34)[C@@](C(=O)OC)(c3cc4c(cc3OC)N(C=O)[C@H]3[C@@](O)(C(=O)OC)[C@H](OC(C)=O)[C@]5(CC)C=CCN6CC[C@]43[C@@H]65)C2)C1 [Vincristine sulfate] | 9.981 | 37.863 | –
Cc1ccccc1-n1c(Cn2ncc3c(N)ncnc32)nc2cccc(C)c2c1=O [PIK-293] | 15.445 | 50.9 | Δ Maximal Response CD47KO-WT [1, 5]: 35.455
COc1ccc(C(=O)c2c(C)n(CCN3CCOCC3)c3cc(I)ccc23)cc1 [AM-630] | – | – | Maximal Response WT (RLU) (WT Jurkat cells): 12.87 RLU; Maximal Response CD47 KO (RLU) [1]: 36.125 RLU; Δ Maximal Response CD47KO-WT [1]: 23.255
C=CCn1c(=O)c2cnc(Nc3ccc(N4CCN(C)CC4)cc3)nc2n1-c1cccc(C(C)(C)O)n1 [MK-1775] | 14.928 | 36.376 | Δ Maximal Response CD47KO-WT [1, 5]: 21.448
CC(C)(C)c1cnc(CSc2cnc(NC(=O)C3CCNCC3)s2)o1 [SNS-032] | 0.946 | 34.22 | –
O=C1Cc2cc(CCN3CCN(c4nsc5ccccc45)CC3)c(Cl)cc2N1 [Ziprasidone hydrochloride] | 17.586 | 42.21 | –
O=C(NCc1ccccc1)[C@H](Cc1ccccc1)NC(=O)[C@H]1O[C@@H]1C(=O)NCCc1ccc(O)cc1 [CAA0225] | 13.449 | 41.833 | –
COCC1(CO)C(=O)C2CCN1CC2 (centres unmarked) [APR-246] | – | – | AC50 (WT Jurkat cells; [4]): 1.48 µM; Δ LogAC50 CD47KO-WT [1, 6]: 1.05; AC50 [1, 7]: 16.6 µM
CCOC(=O)[C@H]1O[C@@H]1C(=O)N[C@@H](CC(C)C)C(=O)NCCC(C)C [Aloxistatin] | 104.466 | 132.797 | –
O=C(Nc1cc(Cl)cc2c1[nH]c1cnccc12)c1cccnc1 [PS-1145] | 67.733 | 97.256 | Δ Maximal Response CD47KO-WT [1, 5]: 29.523
O=c1cc(-c2ccccc2)oc2cc(O)c(O)c(O)c12 [Baicalein] | 63.506 | 91.667 | –
CN(C/C=C/C#CC(C)(C)C)Cc1cccc2ccccc12 [Terbinafine hydrochloride] | 36.243 | 58.754 | –

Compound | Maximal Response WT (RLU) (WT Jurkat cells; [2]) | Maximal Response CD47 KO (RLU) [1, 3] [RLU] | also measured
Nc1cccc(-c2cc3c(Oc4cccc(O)c4)ncnc3[nH]2)c1 [TWS-119] | 15.256 | 41.471 | Δ Maximal Response CD47KO-WT [1, 5]: 26.215
Nc1nc(Nc2ccc(S(N)(=O)=O)cc2)nn1C(=O)c1c(F)cccc1F [JNJ-7706621] | 4.83 | 44.022 | –
CN1CCC(COc2cnc(-c3cccc(Cn4nc(-c5cccc(C#N)c5)ccc4=O)c3)nc2)CC1 [EMD-1214063] | 4.948 | 39.443 | –
CC1(C)O[C@@H]2C[C@H]3[C@@H]4CCC5=CC(=O)C=C[C@]5(C)[C@@]4(F)[C@@H](O)C[C@]3(C)[C@]2(C(=O)CO)O1 [Triamcinolone acetonide] | 71.308 | 99.996 | –
O=C1CSC(=O)N1C(CCc1ccncc1)COc1ccc(-c2cccc([N+](=O)[O-])c2)cc1 (centres unmarked) [AZ 11645373] | 3.025 | 35.262 | Δ Maximal Response CD47KO-WT [1, 5]: 32.237
Bleomycin sulfate | – | – | Maximal Response WT (RLU) (WT Jurkat cells): 18.436 RLU; Maximal Response CD47 KO (RLU) [1]: 76.042 RLU; Δ Maximal Response CD47KO-WT [1]: 57.606; sensitivity of CD47-expressing versus deficient Jurkat T cells ([1]; 48 hours): differing sensitivities
CC(C)[C@H](CO)Nc1nc(Nc2ccc(C(=O)O)c(Cl)c2)c2ncn(C(C)C)c2n1 [Purvalanol B] | – | – | AC50 (WT Jurkat cells): 14.8 µM; Δ LogAC50 CD47KO-WT [1]: 0.55; AC50 [1, 7]: 52.6 µM
COc1cc2nccc(Oc3ccc(NC(=O)Nc4cc(C)on4)c(Cl)c3)c2cc1OC [Tivozanib] | 8.955 | 30.389 | –
COc1cc(Nc2ncc3c(n2)-c2ccc(Cl)cc2C(c2c(F)cccc2OC)=NC3)ccc1C(=O)O [Alisertib] | 28.645 | 53.002 | –
Carboplatin | – | – | Maximal Response WT (RLU) (WT Jurkat cells): 118.461 RLU; Maximal Response CD47 KO (RLU) [1]: 152.695 RLU; Δ Maximal Response CD47KO-WT [1]: 34.234
C[C@@H](CN1CC(=O)NC(=O)C1)N1CC(=O)NC(=O)C1 [Dexrazoxane hydrochloride] | 70.455 | 114.137 | –
O=C(Nc1cccc(Cl)c1)Nc1ncc(CCNc2ncnc3ccsc23)s1 [SNS-314] | 31.863 | 60.794 | –
CC(C)c1cnn2c(NCc3ccccc3)cc(N[C@@H](CO)[C@H](O)CO)nc12 [BS-194] | 1.928 | 43.598 | Δ Maximal Response CD47KO-WT [1, 5]: 41.67
NC(=O)Nc1cc(-c2cccc(F)c2)sc1C(=O)N[C@H]1CCCNC1 [AZD-7762] | 9.778 | 39.585 | –
CC(C)[C@H](N)C(=O)OCCOCn1cnc2c(=O)[nH]c(N)nc21 [Valaciclovir] | 45.639 | 73.063 | –
Cc1c2oc3c(C)ccc(C(=O)N[C@@H]4C(=O)N[C@H](C(C)C)C(=O)N5CCC[C@H]5C(=O)N(C)CC(=O)N(C)[C@@H](C(C)C)C(=O)O[C@@H]4C)c3nc-2c(C(=O)N[C@@H]2C(=O)N[C@H](C(C)C)C(=O)N3CCC[C@H]3C(=O)N(C)CC(=O)N(C)[C@@H](C(C)C)C(=O)O[C@@H]2C)c(N)c1=O [Actinomycin D] (I: T[dV]P[Sar][NMeV] / II: T[dV]P[Sar][NMeV]; ester I:1-I:C, II:1-II:C; linker I:N-II:N via Actinocin(9to1)) | – | – | Maximal Response WT (RLU) (WT Jurkat cells): 2.014 RLU; Maximal Response CD47 KO (RLU) [1]: 42.128 RLU; Δ Maximal Response CD47KO-WT [1]: 40.114
Cc1cc(Nc2cc(NC(=O)c3c(Cl)cccc3Cl)ccn2)nc(N)n1 [RO495] | 13.348 | 38.025 | Δ Maximal Response CD47KO-WT [1, 5]: 24.677
COC(=O)Nc1ccc(-c2nc(N3CCOCC3)c3cnn(C4CCN(C(=O)OC)CC4)c3n2)cc1 [WYE-354] | 2.442 | 31.102 | Δ Maximal Response CD47KO-WT [1, 5]: 28.66
Cc1ccccc1C(C(=O)NC1CCCCC1)N(C(=O)Cn1ccnc1C)c1cccc(F)c1 (centres unmarked) [AGI-5198] | 24.153 | 45.976 | –
